Measurements from PubChem BioAssay AID1347417 (National Center for Advancing Translational Sciences (NCATS), 2020).
Hit rate of the full screen: of about 120,000 compounds, about 5,300 (4.4%) were called active. This list was built around the results that the source calls inconclusive (neither active nor inactive); the mix of calls is not that of the screen. Calls follow the shape of the dose curve; as a rule, active = well fitted inhibition curve with a large enough effect; inconclusive = small, poorly fitted or top-dose-only effect; inactive = no such curve, though single readings can be large or run the other way. Potencies of inconclusive entries are doubtful fits and often do not repeat.

assay: qHTS Primary assay for Inhibitors of Plasmodium falciparum Dd2 growth in vitro; also: nearly all actives have a fitted effect of over 65% in size;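 as to activity, negative = inhibition: plate controls were DMSO vehicle for no effect and reference drug for full effect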; details: P. falciparum Dd2 growth, SYBR Green, 72 h; activity, negative = inhibition: at 28.9 µM (top of the series) unless noted; series mostly up to 28.9 µM
Summary of the method: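 Infected erythrocytes (Dd2, 0.3% parasitemia, 2.5% hematocrit final) are added to compound in RPMI-1640/Albumax II medium, grown 72 h at 37C in low oxygen, then lysed with saponin/Triton-X containing SYBR Green and read by fluorescence.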
Potency is read from the fitted curve at half-maximal effect; tags tell the direction and shape of the fitted curve.

Row | SMILES | Potency | activity, negative = inhibition
1 | Cc1cc(C(=O)N2CC(F)(F)C[C@H]2c2nc(C3CC3)no2)c(C)o1 | active: 3.16 µM | 
2 | Cc1c(C(=O)OC2CCCCC2)[nH]c2c1C(=O)CC(c1ccc(F)cc1)C2 (configuration not stated) |  | inconclusive: -79.3% [inhibitor] [at 5.79 µM]
3 | CC(C)CC(=O)NCC(c1ccc2c(c1)OCO2)N1CCN(c2ccccc2)CC1 (configuration not stated) | inconclusive: 12.6 µM [inhibitor, single point] | 
4 | COc1ccc(C(=O)N2CCCN(c3cc(-c4ccc(C)c(C)c4)[nH]n3)CC2)cc1OC | inconclusive: 20 µM [inhibitor, single point] | 
5 | CNC(=O)[C@H]1C[C@H](Oc2cccnc2)CN1S(=O)(=O)c1ccccc1C | inconclusive: 15.8 µM [inhibitor, single point] | 
6 | COc1cccc(-c2cc(C(F)(F)F)nc(NCCc3ccc(OC)c(OC)c3)n2)c1 | inconclusive: 8.91 µM [inhibitor, single point] | 
7 | COc1cc(F)cc(-c2cnc3[nH]cc(CC(=O)N4CCOCC4)c3c2)c1 |  | inactive: -34.6% [at 44.1 µM]
8 | O=S1(=O)c2ccccc2N(Cc2cccc(F)c2)c2ccccc21 | inconclusive: 10 µM [inhibitor, partial curve, poor fit] | 
9 | CCc1nc(NC(=O)Cn2nc3c(cc2=O)CCCCC3)sc1C |  | inactive: -19.7%
10 | CC1CCCN(C(=O)c2cc3c(s2)CCN(C(=O)c2ccc(Cl)cc2)C3)C1 (configuration not stated) | inconclusive: 10 µM [inhibitor, partial curve, poor fit] | 
11 | O=C(CN1CCN(c2ncncc2-c2nc(-c3ccccc3)no2)CC1)N1CCCCC1 | inconclusive: 3.98 µM [inhibitor, partial curve, poor fit] | 
12 | CC(=O)c1ccc(NC(=O)CSC2=Nc3ccccc3N=C(c3ccc(F)cc3)C2)cc1 | inconclusive: 17.8 µM [inhibitor, single point] | 
13 | COc1cc(OC)cc(-c2nc3nc(C)c(CCC(=O)Nc4cc(C)cc(C)c4)c(C)n3n2)c1 | active: 8.91 µM | 
14 | CCCCn1c(=O)n(CC2CCC(C(=O)NCCCOC)CC2)c(=O)c2sccc21 (configuration not stated) | inconclusive: 2.24 µM [inhibitor, full curve, poor fit] | 
15 | COc1ccc(OCC(=O)N2CCC3(CC2)N=C(c2ccc(C)cc2)NO3)cc1 | inconclusive: 3.98 µM [inhibitor, single point] | 
16 | O=C(NCc1ccc(Cl)cc1)C1CCN(S(=O)(=O)c2cccc3nonc23)CC1 | inconclusive: 0.0398 µM [inhibitor, full curve, poor fit] | 
17 | O=C(O)c1ccnc(-c2ccnc(NCCCN3CCCC(O)C3)n2)c1 (configuration not stated) |  | inactive: 12.1%
